Source: the antibiotic and cytotoxicity screens of Wong et al. (2023)
The list shows a part of the results.

The compounds below were run on HSkMC (human skeletal muscle cells) (assay: cytotoxicity call (relative viability < 0.9)). Conditions: 10 µM.
For C[C@H]1CN([C@@H](C)CO)C(=O)c2cccc(NC(=O)c3cnccn3)c2O[C@H]1CN(C)S(=O)(=O)c1ccc(Cl)cc1, the cytotoxicity call was “inactive”.
C[C@@](N)(C(=O)O)c1ccc(-c2nn[nH]n2)cc1 was tested, and the cytotoxicity call was “inactive”.
Cc1ccc(S(=O)(=O)Nc2ccc3c(c2)C(=O)N([C@@H](C)CO)C[C@H](C)[C@@H](CN(C)C(=O)Cc2ccccc2)OCCCC[C@H](C)O3)cc1 was tested, and the cytotoxicity call was “inactive”.
For C[C@H]1CCCCO[C@H](CN(C)S(=O)(=O)c2ccc(F)cc2)[C@@H](C)CN([C@@H](C)CO)C(=O)c2cc(NC(=O)Cc3ccccc3)ccc2O1, the cytotoxicity call was “inactive”.
Cc1noc(C)c1S(=O)(=O)N(C)C[C@H]1Oc2ccc(NC(=O)Cc3cn(C)c4ccccc34)cc2CC(=O)N([C@@H](C)CO)C[C@H]1C was tested, and the cytotoxicity call was “inactive”.
With C[C@H](CO)N1C[C@H](C)[C@H](CN(C)C(=O)NC2CCCCC2)Oc2ccc(NC(=O)Nc3cccc4ccccc34)cc2C1=O the cytotoxicity call was “inactive”.
COc1cccc(S(=O)(=O)N(C)C[C@@H]2Oc3cc(C#CCN(C)C)ccc3S(=O)(=O)N([C@H](C)CO)C[C@H]2C)c1 was tested, and the cytotoxicity call was “inactive”.
Cc1noc(C)c1NC(=O)Nc1ccc2c(c1)C(=O)N([C@@H](C)CO)C[C@H](C)[C@H](CN(C)S(C)(=O)=O)O2 was tested, and the cytotoxicity call was “inactive”.
In the case of CCCC#Cc1ccc2c(c1)O[C@@H](CN(C)Cc1ccc3c(c1)OCO3)[C@H](C)CN([C@H](C)CO)S2(=O)=O, the cytotoxicity call is reported as “inactive”.
In the case of C[C@@H]1CCCCO[C@H](CN(C)S(=O)(=O)c2ccc(Cl)cc2)[C@H](C)CN([C@H](C)CO)C(=O)c2cc(NS(=O)(=O)c3ccc(Cl)cc3)ccc2O1, the cytotoxicity call is reported as “inactive”.
In the case of COc1ccc(S(=O)(=O)Nc2ccc3c(c2)C(=O)N([C@H](C)CO)C[C@H](C)[C@H](CN(C)Cc2ccc(-c4ccccc4)cc2)O3)cc1, the cytotoxicity call is reported as “inactive”.
For CCCNCC(O)COc1ccccc1C(=O)CCc1ccccc1.Cl (stereo unspecified), the cytotoxicity call was “inactive”.
For COc1ccccc1CN1C(=O)c2ccccc2[C@](Cc2ccccc2I)(C(=O)NCC(C)C)[C@@H]1c1ccc(CO)cc1, the cytotoxicity call was “inactive”.
In the case of C[C@@H]1CN([C@@H](C)CO)C(=O)Cc2cc(NC(=O)CCCCCC(=O)Nc3ccccc3N)ccc2O[C@@H]1CN(C)CC1CCCCC1, the cytotoxicity call is reported as “inactive”.
Cc1noc(C)c1S(=O)(=O)N(C)C[C@H]1Oc2c(NS(=O)(=O)c3ccccc3)cccc2C(=O)N([C@@H](C)CO)C[C@H]1C was tested, and the cytotoxicity call was “inactive”.
C[C@@H]1CCCCO[C@@H](CN(C)C(=O)NC2CCCCC2)[C@@H](C)CN([C@@H](C)CO)C(=O)c2cc(NC(=O)Cc3ccccc3)ccc2O1 was tested, and the cytotoxicity call was “inactive”.
With COc1ccc(NC(=O)N(C)C[C@H]2OCc3cnnn3CCCC(=O)N([C@H](C)CO)C[C@@H]2C)c(OC)c1 the cytotoxicity call was “inactive”.
In the case of Cc1noc(C)c1NC(=O)N(C)C[C@@H]1Oc2ccc(NS(=O)(=O)c3ccccc3)cc2CC(=O)N([C@@H](C)CO)C[C@@H]1C, the cytotoxicity call is reported as “inactive”.
O=C(NC[C@H]1Cn2nncc2CO1)c1ccc[nH]1 was tested, and the cytotoxicity call was “inactive”.
In the case of C[C@H](CO)N1C[C@H](C)[C@@H](CN(C)C(=O)c2ccc(F)cc2)OCc2ccccc2-c2c(n(C)c3ccccc23)C1=O, the cytotoxicity call is reported as “inactive”.
O=C(C[C@@H]1CC[C@H]2[C@@H](COC[C@H](O)CN2C(=O)c2ccncc2)O1)NC1CCC1 was tested, and the cytotoxicity call was “inactive”.
In the case of C[C@@H]1CN([C@@H](C)CO)C(=O)c2cc(NC(=O)C3CCCCC3)ccc2O[C@@H](C)CCCCO[C@H]1CN(C)Cc1ccc(C(=O)O)cc1, the cytotoxicity call is reported as “inactive”.
C[C@@H]1CN([C@H](C)CO)C(=O)c2cc(NC(=O)Nc3cccc4ccccc34)ccc2O[C@H]1CN(C)S(=O)(=O)c1cccs1 was tested, and the cytotoxicity call was “inactive”.
For C[C@H](CO)N1C[C@H](C)[C@H](CN(C)Cc2ccc(Oc3ccccc3)cc2)Oc2ccc(NC(=O)Nc3ccc(F)cc3)cc2C1=O, the cytotoxicity call was “active”.
C[C@@H]1CCCCO[C@H](CN(C)Cc2ccc3c(c2)OCO3)[C@H](C)CN([C@H](C)CO)C(=O)c2cc(NC(=O)Nc3ccc(F)cc3)ccc2O1 was tested, and the cytotoxicity call was “inactive”.
In the case of C[C@@H]1CN([C@H](C)CO)C(=O)Cc2cc(NC(=O)Nc3ccc(C(F)(F)F)cc3)ccc2O[C@H]1CN(C)Cc1ccccc1, the cytotoxicity call is reported as “active”.
In the case of COCC(=O)N(C)C[C@@H]1Oc2cc(C#Cc3ccccc3)ccc2S(=O)(=O)N([C@H](C)CO)C[C@@H]1C, the cytotoxicity call is reported as “inactive”.
C[C@H]1CN([C@@H](C)CO)C(=O)c2cc(NC(=O)Nc3ccc(C(F)(F)F)cc3)ccc2O[C@H]1CN(C)S(C)(=O)=O was tested, and the cytotoxicity call was “inactive”.
For O=c1c(O[C@@H]2O[C@H](CO)[C@@H](O)[C@H](O)[C@H]2O)c(-c2ccc(O)c(O)c2)oc2cc(O)cc(O)c12, the cytotoxicity call was “inactive”.
With COc1ccc(NC(=O)N(C)C[C@H]2OCCCC[C@@H](C)Oc3ccc(NC(=O)CCC(F)(F)F)cc3C(=O)N([C@H](C)CO)C[C@@H]2C)cc1 the cytotoxicity call was “inactive”.
For C[C@H]1CN([C@@H](C)CO)C(=O)c2cc(NS(C)(=O)=O)ccc2O[C@@H]1CN(C)S(=O)(=O)c1ccccc1, the cytotoxicity call was “inactive”.
